Reference: PubChem BioAssay AID720709 (National Center for Advancing Translational Sciences (NCATS), 2013)
About 520 (0.14%) of roughly 360,000 compounds were called active. The inconclusive results got no clear call from the source; some entries with a clear call stand among them for comparison. The call rests on the fitted dose curve; in most records, active means well fitted inhibition curve with a large enough effect; inconclusive means small, poorly fitted or top-dose-only effect; inactive means no such curve, though single readings can be large or run the other way. No potency is given beside an inconclusive call; the fits are too rough.

Target: Rap guanine nucleotide exchange factor 3 (Homo sapiens) (UniProt O95398)
Experiment: qHTS for Antagonist of cAMP-regulated guanine nucleotide exchange factor 3 (EPAC1): primary screen; further: nearly all actives have a fitted effect of over 50% in size;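 on activity change, negative = inhibition: plate controls were vehicle for no effect and positive control for full effect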
Settings: EPAC1 GEF assay, Rap1b-BODIPY-GDP exchange fluorescence; activity change, negative = inhibition: at 115 µM (top of the series)
Potency means the concentration at half of the fitted maximal effect; tags describe the fitted curve by direction and shape.

Chain of UniProt O95398 (O95398 whole entry, looked up): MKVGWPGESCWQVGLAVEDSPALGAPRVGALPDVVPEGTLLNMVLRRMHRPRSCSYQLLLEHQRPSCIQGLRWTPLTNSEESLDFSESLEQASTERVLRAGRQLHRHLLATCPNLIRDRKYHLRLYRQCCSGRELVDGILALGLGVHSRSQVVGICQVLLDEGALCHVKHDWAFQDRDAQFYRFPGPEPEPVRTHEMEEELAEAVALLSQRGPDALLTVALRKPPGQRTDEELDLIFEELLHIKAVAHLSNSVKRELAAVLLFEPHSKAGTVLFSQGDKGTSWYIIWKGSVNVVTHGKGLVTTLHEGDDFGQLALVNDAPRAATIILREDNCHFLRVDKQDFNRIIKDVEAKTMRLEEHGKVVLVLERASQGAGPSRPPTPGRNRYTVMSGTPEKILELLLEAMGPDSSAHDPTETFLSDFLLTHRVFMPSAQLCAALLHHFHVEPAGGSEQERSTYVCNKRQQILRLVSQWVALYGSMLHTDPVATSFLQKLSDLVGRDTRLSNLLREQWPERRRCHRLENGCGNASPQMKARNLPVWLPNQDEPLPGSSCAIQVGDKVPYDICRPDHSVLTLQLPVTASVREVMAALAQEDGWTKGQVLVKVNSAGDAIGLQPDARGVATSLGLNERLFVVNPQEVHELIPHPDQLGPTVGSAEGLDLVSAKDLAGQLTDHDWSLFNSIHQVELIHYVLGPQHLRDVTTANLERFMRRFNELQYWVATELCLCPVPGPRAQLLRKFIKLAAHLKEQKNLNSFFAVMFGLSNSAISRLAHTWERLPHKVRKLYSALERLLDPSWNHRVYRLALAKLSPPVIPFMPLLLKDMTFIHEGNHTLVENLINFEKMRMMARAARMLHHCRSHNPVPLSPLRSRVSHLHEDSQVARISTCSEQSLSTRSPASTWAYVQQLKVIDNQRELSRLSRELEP

| Compound | Potency | activity change, negative = inhibition |
| --- | --- | --- |
| C/C(=N\Nc1ccc(C(F)(F)F)cn1)c1ccc(S(=O)(=O)NCc2ccco2)cc1 | inconclusive [inhibitor, full curve, poor fit] |  |
| Cc1ccc(CNc2nc3ccccc3n3cnnc23)cc1 | inconclusive [inhibitor, single point] |  |
| O=C(CC1c2ccccc2Oc2ccccc21)NCc1ccco1 | inconclusive [inhibitor, single point] |  |
| CCC(=O)Nc1nnc(S(=O)(=O)N2c3ccccc3CC2C)s1 (stereo unspecified) | inconclusive [inhibitor, full curve] |  |
| Cc1cc(C)c2nc(-c3ccccn3)cc(C(=O)Nc3ccc(S(=O)(=O)Nc4cc(C)on4)cc3)c2c1 | inconclusive [inhibitor, single point] |  |
| COc1ccc(NS(=O)(=O)c2cc(NC(=O)c3ccco3)ccc2N2CCCCC2)cc1 | inconclusive [inhibitor, full curve] |  |
| CN(C)/C=C/C(=O)c1ccc(Br)cc1 | inactive |  |
| CCn1c(COc2ccccc2C)nc2ccccc21 | inconclusive [inhibitor, single point] |  |
| COc1ccc(NC(=O)Nc2cccc(C(F)(F)F)c2)cn1 | inconclusive [inhibitor, partial curve, poor fit] |  |
| Cc1cc(Br)cn2c(Cc3cccc(F)c3)c(-c3ccccc3)nc12 | inactive |  |
| Nc1nc(N)c2c(ccc3c2ccn3Cc2cccc([N+](=O)[O-])c2)n1 | inconclusive [inhibitor, full curve] |  |
| CCOc1ccc(N2CC(C(=O)NCCc3c[nH]c4ccc(C)cc34)CC2=O)cc1 (stereo unspecified) | inconclusive [inhibitor, single point] |  |
| Cc1ccc(S(=O)(=O)NCc2ccc(C(=O)N3CCN(c4ccccc4)CC3)cc2)cc1 | inconclusive [inhibitor, single point] |  |
| CC1(OC(=O)C2CCCC2)C(=O)C=C2C=C(c3ccsc3)OC=C2C1=O (stereo unspecified) | inconclusive [inhibitor, partial curve] |  |
| C=CCN(CC=C)C(=S)NC(=O)Cc1cccc2ccccc12 | inconclusive [inhibitor, partial curve] |  |
| O=C(COC(=O)/C=C/c1cccc(Cl)c1)Nc1cccc(S(=O)(=O)NC2=NCCC2)c1 | inconclusive [inhibitor, single point] |  |
| C[C@H](O)[C@@H]1CN2CCc3c([nH]c4ccc(-c5ccc6c(c5)OCO6)cc34)[C@@H]2C[C@@H]1N(C)C(=O)NC1CCCCC1 | inactive |  |
| CN(C)CCCNC(=S)N(CCCN(C)C)Cc1cc2cc3c(cc2[nH]c1=O)OCO3 | inactive |  |
| CCN1CCN(C(=S)c2ccc(-c3ccccc3)cc2)CC1 | inconclusive [inhibitor, partial curve] |  |
| Cn1c(=O)n(CCOc2ccccc2Cl)c2ccccc21 | inactive |  |
| CCOC(=O)c1csc(NC(=O)C(C)(C)C)n1 | inactive |  |

| Compound | Potency | activity change, negative = inhibition |
| --- | --- | --- |
| CC(=O)c1ccc(NC(=O)CN2CCN(c3ccccc3)CC2)cc1 | inactive |  |
| C[C@H](NC(=O)N1CCn2c1nc1ccccc12)C(=O)N1CCCCC1 | inactive |  |
| O=C(N/N=C/c1ccco1)c1cc(-c2ccccc2)nc2ccccc12 | inconclusive [inhibitor, partial curve] |  |
| Cc1c(C(=O)N2CCN(c3ccc(C(F)(F)F)cn3)CC2)oc2ccccc12 | inconclusive [inhibitor, single point] |  |
| COc1ccccc1N(CC(=O)NC1CC2CCC1C2)S(=O)(=O)c1ccc(C)cc1 (stereo unspecified) |  | inconclusive: -30.8% [inhibitor] |
| COc1ccc(/C=C2/C(=O)N(c3nc4ccccc4s3)N=C2CSc2ccc(Cl)cc2)cc1 | inconclusive [inhibitor, full curve, poor fit] |  |
| CC1CC(C)CN(C(=O)C2CCN(S(=O)(=O)c3ccc4c(c3)CC(C)N4C(=O)C3CC3)CC2)C1 (stereo unspecified) | inconclusive [inhibitor, full curve, poor fit] |  |
| COc1cccc(CNC(=O)[C@@H]2CCCN2C(=O)[C@H]2CCCCN2C(=O)c2ccc(Cl)cc2)c1 | inconclusive [inhibitor, single point] |  |
| CC(=O)N[C@@H](Cc1c[nH]c2ccccc12)C(=O)OCC(=O)Nc1ccc(Cl)c(S(=O)(=O)N(C)C)c1 | inconclusive [inhibitor, full curve, poor fit] |  |
| O=C(NC(=S)Nc1ccc(Oc2ccc(Cl)cc2)cc1)c1ccccc1 | inconclusive [inhibitor, single point] |  |
| CC(C)CCNS(=O)(=O)c1ccc(-c2ccc(S(=O)(=O)NCCC(C)C)cc2)cc1 | inactive |  |
| C=CC[C@@H](CC(=O)N[C@H](CO)Cc1ccccc1)C(=O)N[C@H](COC(=O)[C@H](CC=C)CC(=O)OC(C)(C)C)Cc1c[nH]c2ccccc12 | inconclusive [inhibitor, partial curve, poor fit] |  |
| Cc1nn(CCc2nc(-c3ccco3)cs2)c2[nH]c(=O)cc(C(F)(F)F)c12 | inconclusive [inhibitor, partial curve] |  |
| Cn1c(SCc2nc3ccccc3[nH]2)nnc1-c1cccs1 | inactive |  |
| CCCCCCCc1ccc(-c2ccc(O)cc2)nc1 | inconclusive [inhibitor, partial curve, poor fit] |  |
| Cc1noc(C)c1NC(=O)N(C)C[C@H]1Oc2ccc(NC(=O)C3CCCCC3)cc2C(=O)N([C@H](C)CO)C[C@@H]1C | inactive |  |
| O=C(CSc1nncs1)N1c2ccccc2Sc2ccccc21 | inactive |  |
| CN(C)C=Nc1ncc2c3ccccc3n(CCN(C)C)c2c1C#N | inconclusive [inhibitor, single point] |  |
| Cc1cccc(C)c1NC(=O)CN(C)C(=O)c1ccc(-c2cccc(C(F)(F)F)c2)o1 | inconclusive [inhibitor, partial curve, poor fit] |  |
| C=CCn1c(SCc2cc([N+](=O)[O-])cc3c2OCOC3)nc2cc(C(=O)O)ccc2c1=O | inconclusive [inhibitor, single point] |  |
